# PubChem BioAssay AID1865 (National Center for Advancing Translational Sciences (NCATS), 2009)
# Hit rate of the full screen: of about 280,000 compounds, about 540 (0.19%) were called active. Inconclusive means that the source gave no clear call. Such entries were picked first, then a sample of the others. Calls follow the shape of the dose curve; as a rule, active = well fitted activation curve with a large enough effect; inconclusive = small, poorly fitted or top-dose-only effect; inactive = flat fitted curve, though single readings scatter. Potencies of inconclusive entries are doubtful fits and often do not repeat.
# Assay: Quantitative High-Throughput Screen for Regulators of Epigenetic Control; also: nearly all actives have a fitted effect of over 60% in size; as to GFP activation: % of control where 0% means no effect
# Details: murine LDR cells, GFP reporter derepression, 30 h; GFP activation: at 53.9 µM (top of the series)
# Summary of the method: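 Derepression of a silenced CMV-GFP reporter in murine LDR cells is scored by enumerating GFP-positive cells with a laser-scanning microplate cytometer after 30 hours of treatment at 37 C.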
# Potency is read from the fitted curve at half-maximal effect; tags tell the direction and shape of the fitted curve.
SMILES,Potency,GFP activation
Cc1ccc(-c2cc(C(F)(F)F)n3ncc(-c4ccccc4)c3n2)cc1,"inconclusive: 20 µM [activator, single point]",
O=C(NC1CCCC1)c1ccc2nc[nH]c2c1,,inactive: -1.14%
CCN(CC)C(=O)c1ccc(/C=C/c2c[nH]c3ccccc23)[n+](C)c1,"inconclusive: 15.8 µM [activator, single point]",
Cc1oc2c(CN3CCCC3)c(O)ccc2c(=O)c1Oc1ccccc1Br,,inactive: -0.862%
CN1C(=O)c2cccc(NCCCN3C(=O)c4ccccc4C3=O)c2C1=O,"inconclusive: 25.1 µM [activator, single point]",
CC(C)OCc1cc(CN2CCN(c3cccc(C(F)(F)F)c3)CC2)c(O)c2ncccc12,"inconclusive: 5.62 µM [activator, single point]",
CCOC(=O)/C(=C/C=C1\Sc2cc(C)c(C)cc2N1CC)C(C)=O,"inconclusive: 12.6 µM [activator, partial curve]",
COc1cccc(Cn2c(CNS(=O)(=O)c3ccc(Cl)s3)nc3cccnc32)c1,,inactive: 1.14%
COc1ccc(NC(=O)c2cc([N+](=O)[O-])ccc2O)cc1,,inactive: 3.45%
CCOc1cc(-c2ccc(OC(=O)c3ccccc3)c(OC)c2)cc(=O)c2c(C)oc(C)c12,"inconclusive: 35.5 µM [activator, single point]",
Cc1ccc(S(=O)(=O)N(Cc2ccccc2)c2ccccc2C(=O)NCc2cccnc2)cc1,,inactive: 0%
CCC(C)N1C(=O)/C(=C/c2c(NCCCOC(C)C)nc3c(C)cccn3c2=O)SC1=S (stereo not drawn),active: 3.16 µM,
CCOC(=O)c1cc2cc(OC)ccc2nc1C,,inactive: 0%
CCCc1cc(=O)[nH]c(Nc2ccccc2O)n1,"inconclusive: 35.5 µM [activator, single point]",
CCCC(NCC(O)COc1ccc(-c2ccccc2)cc1)c1ccccc1 (stereo not drawn),"inconclusive: 17.8 µM [activator, single point]",
O=C(Nc1ccccc1F)C(=Cc1sc(N2CCOCC2)nc1-c1ccccc1)C(=O)Nc1ccccc1F,active: 14.1 µM,
Cc1nc(CC(=O)Nc2nc(-c3ccccc3)cs2)cs1,"inconclusive: 5.62 µM [activator, single point]",
CC1=C(/C=C/C(C)=C/C=C/C(C)=C/C(=O)Nc2ccc(O)cc2)C(C)(C)CCC1,"inconclusive: 35.5 µM [activator, single point]",
CCOc1ccc(Nc2nc3c(S(=O)(=O)c4ccc(CC)cc4)nnn3c3ccc(Cl)cc23)cc1,"inconclusive: 6.31 µM [activator, single point]",
Cc1cc(O)c(Oc2cc(C)cc(O)c2O)c(O)c1,"inconclusive: 35.5 µM [activator, single point]",
Cc1ccc2nc(-c3ccc(SCC(=O)Nc4ccc5c(c4)OCCO5)nc3)[nH]c2c1,"inconclusive: 15.8 µM [activator, single point]",
CCCNC(=O)c1cnn2c(C(F)F)cc(-c3ccccc3)nc12,,inactive: -0.962%
CC(=O)CCc1oc2ccc([N+](=O)[O-])cc2c1-c1ccc(C)o1,,inactive: 4.37%

SMILES,Potency,GFP activation
Cc1cc(/C=N/NC(N)=S)c(C)n1-c1ccc(Cl)cc1,"inconclusive: 22.4 µM [activator, single point]",
COc1cc(C2C=C(C34CC5CC(CC(C5)C3)C4)NC(=S)N2)cc(OC)c1OC (stereo not drawn),,inactive: -1.53%
N#Cc1c(C(F)(F)F)cc(-c2ccco2)nc1SCc1ccccn1,"inconclusive: 22.4 µM [activator, single point]",
N#C/C(=C\c1sc(N2CCOCC2)nc1-c1ccccc1)C(=O)Nc1cccc2ccccc12,active: 12.6 µM,
Cc1cc(C(=O)CCl)c(C)n1CCc1ccc(Cl)cc1,"inconclusive: 3.16 µM [activator, single point]",
Cn1c(CNC(=O)c2ccc(Cl)c(Cl)c2)nnc1SCC(=O)Nc1sc2c(c1C#N)CCCC2,"inconclusive: 14.1 µM [activator, single point]",
Cc1cc(NC(=O)CSc2nc3c(c(=O)n2-c2ccc(Br)cc2)SCC3)no1,"inconclusive: 31.6 µM [activator, single point]",
Cc1ccc2c(n1)sc1c(-c3ccccc3)c(C#N)c(N)nc12,"inconclusive: 35.5 µM [activator, single point]",
O=[N+]([O-])/C(C=Nc1ccccc1O)=C\Nc1ccccc1O,"inconclusive: 3.55 µM [activator, full curve]",
COc1cccc(-c2ccc3c(N)c(C(=O)c4ccc(F)cc4)sc3n2)c1,"inconclusive: 31.6 µM [activator, single point]",
COc1cccc2c1C(=O)c1c(O)c3c(c(O)c1C2=O)C[C@@](O)(C(=O)CO)C[C@@H]3O[C@@H]1C[C@H](N)[C@H](O)[C@H](C)O1,"inconclusive: 3.16 µM [activator, single point]",
CCC(Oc1ccccc1)C(=O)N1CCN(Cc2cc(=O)n3nc(-c4cccc(C)c4)sc3n2)CC1 (stereo not drawn),,inactive: -2.08%
CC(=O)c1c(C)[nH]c(C(=O)OCC(=O)Nc2cc(S(=O)(=O)N3CCCCC3)ccc2C)c1C,"inconclusive: 31.6 µM [activator, single point]",
O=c1oc2c(CN3CCCCCC3)c(O)ccc2cc1-c1nc2ccccc2[nH]1,"inconclusive: 14.1 µM [activator, single point]",
CCn1c(/C=C/c2c(C)[nH]c3ccccc23)nc2ccccc2c1=O,"inconclusive: 31.6 µM [activator, single point]",
Cc1c(/C=N/Nc2nc3ccccc3[nH]2)c2ccccc2n1C,,inactive: 2.38%
Cc1ccc(-c2ccc(C3C(C#N)=C(N)Oc4n[nH]c(C)c43)o2)cc1 (stereo not drawn),"inconclusive: 35.5 µM [activator, single point]",
COc1ccc(NC(=O)CN2C(=O)/C(=C3\SC(=S)N(C4CCS(=O)(=O)C4)C3=O)c3ccccc32)cc1 (stereo not drawn),"inconclusive: 6.31 µM [activator, partial curve]",
CCC1(C)CC(=O)c2c(ccc3oc(C(=O)Nc4ccc(C(C)=O)cc4)c(C)c23)O1 (stereo not drawn),"inconclusive: 28.2 µM [activator, single point]",
N#C/C(=C/c1ccc(N2CCCCCC2)o1)c1ccc(Cl)cc1,active: 7.08 µM,
N#C/C(=C\c1ccc(F)cc1)c1nc(-c2ccco2)cs1,"inconclusive: 25.1 µM [activator, single point]",
CCN(CC)S(=O)(=O)c1cc([N+](=O)[O-])ccc1N=Nc1c(O)[nH]c2ccccc12,active: 17.8 µM,
CC1CC(C)(C)Nc2ccc(OC(=O)c3ccco3)cc21 (stereo not drawn),"inconclusive: 5.62 µM [activator, single point]",

SMILES,Potency,GFP activation
Nc1c(Cl)ncnc1N/N=C/c1ccccn1,"inconclusive: 31.6 µM [activator, single point]",
CCOC(=O)/C=c1\s/c(=C\c2ccc(C)cc2)c(=O)n1CC(=O)NCc1ccco1,"inconclusive: 25.1 µM [activator, single point]",
Cc1ccc2nc(Nc3nc(-c4ccccc4)cc(=O)[nH]3)nc(C)c2c1,"inconclusive: 20 µM [activator, single point]",
CCCC1=Nc2cc(C(=O)NC3CCCCC3)ccc2Sc2ccc(C)cc21,,inactive: 3.53%
Cc1cc(C)c2c(=O)c3c(oc2c1)C(=O)N(CCCOC(C)C)C3c1ccccc1F (stereo not drawn),"inconclusive: 17.8 µM [activator, single point]",
N#C/C(=C\c1ccc(F)cc1)c1nc(-c2ccc(-c3ccccc3)cc2)cs1,"inconclusive: 35.5 µM [activator, single point]",
CN(C)c1ccc(/C=C2\SC(=O)N(CCc3nnc(N)s3)C2=O)cc1,"inconclusive: 35.5 µM [activator, single point]",
CC(=O)c1ccc(N2CCC(c3cc(-c4ccc(Cl)cc4Cl)n[nH]3)CC2)c([N+](=O)[O-])c1,,inactive: -1.27%
CCCCCCNC(=O)c1cc(-c2ccco2)nc2ccccc12,,inactive: 5.21%
CCCN1C(=O)/C(=C\C=C2/Sc3ccccc3N2CCO)SC1=S,"inconclusive: 3.55 µM [activator, single point]",
Cc1cc(C)cc(N=c2c([N+](=O)[O-])nn(-c3cccc(Cl)c3)n2O)c1,"inconclusive: 35.5 µM [activator, single point]",
CCOC(=O)/C(=C\C=C1/Sc2ccccc2N1CC)C(C)=O,active: 15.8 µM,
O=c1c2cccc3c(N4CCOCC4)ccc(c32)c2nc3ccccc3n12,active: 12.6 µM,
CCCCC(=O)Nc1ccc(C(=O)Nc2ccc(OC)cc2[N+](=O)[O-])cc1,"inconclusive: 28.2 µM [activator, single point]",
NC(=S)N/N=C/c1cn(-c2ccccc2)nc1-c1cccnc1,"inconclusive: 28.2 µM [activator, single point]",
Cc1nc2sc(C(=O)c3ccccc3)c(N)c2c(C)c1C,"inconclusive: 35.5 µM [activator, single point]",
O=C(O)CCCCCN1C(=O)/C(=C\c2ccc(-c3ccc(Cl)cc3)o2)SC1=S,active: 3.55 µM,
Cc1ccc(Sc2nc(-c3ccccc3)nnc2C(F)(F)F)cc1,"inconclusive: 31.6 µM [activator, single point]",
COc1ccc(OC)c(C2=NOC(C(=O)NCc3ccco3)C2)c1 (stereo not drawn),"inconclusive: 15.8 µM [activator, single point]",
O=C1C=C(N2CCOCC2)C2(CCCCC2)O1,,inactive: 1.05%
CCCN(CCC)CC(O)Cn1cc(/C=C/C(=O)c2ccc(Br)cc2)c2ccccc21 (stereo not drawn),active: 15.8 µM,
Cc1cc(Cl)n2c(nc3cc(F)c(F)cc32)c1C#N,"inconclusive: 5.62 µM [activator, single point]",
